These results are taken from PubChem BioAssay AID2202238 (Ras Initiative Chemistry Research Team, Frederick National …, 2025).

Out of some 2,200 compounds screened, fewer than 10 were called active. The list shows a part of the results. The source made no clear call on entries shown without one.

For the experiment, the target named is GTPase KRas (Homo sapiens) (UniProt P01116). Briefly: Covalent labelling of cysteine mutants by fragments, read by mass spectrometry (AID 2202238). On the set-up: protein at 5 µM with 500 µM competing thiol for 1.5 h. Particulars: KRAS G12D cysteine mutants, disulfide tethering, MALDI-TOF labeling; stronger effect = higher value; H27C mutant labeling; fragment at 500 µM.
UniProt P01116, sequence (P01116 whole entry, looked up, the tested form may be a part): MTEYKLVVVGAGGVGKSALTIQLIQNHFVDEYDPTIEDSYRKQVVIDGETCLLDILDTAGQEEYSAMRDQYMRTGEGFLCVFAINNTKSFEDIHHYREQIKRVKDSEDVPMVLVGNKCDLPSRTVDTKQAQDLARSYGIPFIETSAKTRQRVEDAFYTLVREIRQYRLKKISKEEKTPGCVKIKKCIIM
For `O=C(CCS)Nc1cnn(Cc2ccccn2)c1`, the percent labeling was 37.5%.
For `O=C(CCS)NCc1cnc2ccccc2c1` the value was 38%; for `CN(C)C(CCC(=O)NCCS)c1ccccc1` (stereo unspecified), 49.9%; for `O=C(CCS)NCc1cccc(C(=O)N2CCOCC2)c1`, 35.2%.
`COc1nc(CNC(=O)CCS)ccc1OCc1ccccc1` displayed a percent labeling of 36.2%.
In the case of `O=C(Nc1ccc2c(c1)CCO2)C1CCCCN1C(=O)CCS` (stereo unspecified), the percent labeling turned out to be 29.3%.
For `CCn1cc(CC(=O)NCCS)c2ccccc21` the value was 29.3%; for `O=C(Cc1ccccc1Nc1c(Cl)cccc1Cl)NCCS`, 20.8%.
`Cn1ccnc1CN1CCN(C(=O)CCS)CC1` gave a percent labeling of 23.6%.
`O=C(NCCS)c1cn([C@@H]2COC[C@H]2O)nn1` yielded a percent labeling of 44%.
For `O=C(NCCS)c1cc(C2CC2)nc2ccccc12` the value was 31.3%; for `O=C(CCS)NCc1ccc2c(c1)CC(=O)N2`, 19.4%; for `COc1ccc(C(=O)NCCS)c(OC(F)F)c1`, 48.7%.
For `O=C(CCS)N1CCN(c2ncnc3ccsc23)CC1` the value was 57%; for `O=C(CCS)Nc1ncn(C2CCCCC2)n1`, 38.7%.
As for `CN1C(=O)NC2(CCN(C(=O)CCS)CC2)C1=O`, the percent labeling was found to be 36.9%.
For `CCN(CC)C(=O)c1cc(NC(=O)CCS)nn1C` the value was 43.8%; for `O=C(CCS)Nc1cncc(-c2nccs2)c1`, 49.8%; for `O=C(CCS)N1CC(Oc2ccc(Cl)cc2)C1`, 34.7%.
For `O=C(CC1(CCc2ccccc2)CCCC1)NCCS` the value was 9.8%.
To `O=C(CCS)NCC12CC(C1)C(C(F)(F)F)O2` (stereo unspecified) belongs 31.5%; to `COc1ccc2cc(CNC(=O)CCS)ccc2c1`, 9.5%.
The compound `O=C1CCC(c2ccc(C(=O)NCCS)cc2)N1` (stereo unspecified) showed a percent labeling of 29.7%.
To `O=C(CCS)NC1(c2cccc(F)c2F)CCCC1` belongs 36.4%.
For `O=C(CCS)NCCc1ccc(-n2cnnc2)cc1` the value was 38%; for `O=C(CCS)N1CCC2(CC1)OCCc1ccccc12`, 50.7%; for `CCOC(=O)C1C2CC(CN(C(=O)CCS)C2)N1C(=O)OC(C)(C)C` (stereo unspecified), 24.9%.
Consider `Cc1cc2ncc(C(=O)N(C)CC(=O)NCCS)c(C)n2n1`, for which the percent labeling was determined as 33.2%.
As for `O=C(CCS)N1CCOCc2cc(Br)ccc21`, the percent labeling came out at 39.5%.
To `O=C(CCS)N1CCc2c(ncn2-c2ccc(F)cc2)C1` belongs 52.2%.
Consider `O=C(NCCS)C1COc2ccccc2O1` (stereo unspecified), for which the percent labeling turned out to be 38.5%.
In turn, `Cc1nc(C2CCN(C(=O)CCS)C2)n[nH]1` (stereo unspecified) returned a percent labeling of 32%.
For `O=C(CCS)Nc1ccc2[nH]ncc2c1Cl` the value was 43%; for `CC(Cc1ccc(F)c(F)c1)C(=O)NCCS` (stereo unspecified), 34.1%; for `NC(=O)c1cc(NC(=O)CCS)ccc1Cl`, 41.9%.
To `O=C(NCCS)C(c1ccccc1)N1CCCCC1=O` (stereo unspecified) belongs 32.2%.
For `O=C(NCCS)c1ccc(-c2ccc(F)cc2)o1` the value was 28.5%; for `O=C(CCS)N1CC(O)(c2ccc(F)cc2)C1`, 42.3%; for `O=C(NCCS)[C@@H]1C[C@@H]1c1nc2ncccc2[nH]1`, 23.9%.
Regarding `COc1cc2cc(C(=O)NCCS)[nH]c2cc1OC`, the percent labeling was determined as 32.5%.
To `Cn1c(CNC(=O)CCS)nnc1-c1ccccc1` belongs 33.8%; to `O=C(NCCS)C1(c2ccc(Br)cn2)CCC1`, 40.6%; to `O=C(CC1=NN(c2cccc(Cl)c2)C(=O)C1)NCCS`, 9.2%.
For the compound `O=C1CN(Cc2occc2C(=O)NCCS)CCN1`, the percent labeling was found to be 24.5%.
For the compound `CC(C)Cc1cc(CNC(=O)CCS)no1`, the percent labeling amounted to 33.1%.
For `COc1cc2c(c(OC)c1OC)CCN(C(=O)CCS)CC2` the value was 55.2%; for `O=C(CCS)NCc1nnc(N2CCCC2)o1`, 21.3%.
In turn, `O=C(CCS)NC1CCN(C(=O)c2ccccc2F)CC1` came in with a percent labeling of 43.8%.
For `O=C(NCCS)c1cnn(-c2ccc(F)cc2)c1-n1cccc1` the value was 23.1%; for `Cc1cc(C(=O)NCCS)c(C)n1C1CCCOC1` (stereo unspecified), 16.4%.
With `COc1c(Cl)cc(C(=O)NCCS)c2ncccc12`, the percent labeling worked out at 34.6%.
To `O=C(CCS)NC1CCN(c2ccc(F)cc2)CC1` belongs 39.4%; to `CCc1cc2c(CC(=O)NCCS)csc2s1`, 16.6%; to `Cc1ccc(C(=O)NCCS)c(F)c1Br`, 30.9%.
For `Cc1cc(Oc2ccccc2)ccc1C(=O)NCCS` the value was 22.5%; for `CC(=O)N(CCC(=O)NCCS)Cc1ccccc1`, 34.6%; for `CN(Cc1ccnc2ccccc12)C(=O)CCS`, 35.4%.
For `CC(C)(CNC(=O)CCS)c1ccc(F)cn1` the value was 28.5%; for `Cc1cc(NC(=O)CCS)c(C#N)cc1N(C)C`, 35.4%.
Compound `Cc1cccc(C(=O)NC2CC(NC(=O)CCS)C2)n1` (stereo unspecified) gave a percent labeling of 36.9%.
For `O=C(CCS)Nc1cn[nH]c1-c1ccccn1` the value was 42.8%; for `O=C(CCS)NCCn1ccc(-c2ccccc2)n1`, 38.7%; for `Cc1nn(C)c(N2CCN(C(=O)CCS)CC2)c1C#N`, 55.4%.
To `CC(C)c1ccc(NC(=O)CCS)cc1C(F)(F)F` belongs 20.2%.
To `Cc1nc(-c2ccncc2)[nH]c(=O)c1CCC(=O)NCCS` belongs 29.4%.
In turn, `Cn1ccc(C(=O)NCCS)c1-c1ccccc1` had a percent labeling of 37.6%.
To `COc1ccc2c(n1)N(C)CCN2C(=O)CCS` belongs 22.4%.
For `O=C(CCS)N1CC(Oc2cccc(F)c2)C1` the value was 32.8%; for `O=C(NCCS)C1(Oc2ccc(Cl)cc2)CC1`, 26.3%; for `Cc1cc(C)n(-c2ccc(NC(=O)CCS)cc2Cl)n1`, 40.4%.
To `CC1(C(=O)NCCS)CC(c2ccccc2)=NO1` (stereo unspecified) belongs 27.3%.
